{
  "sequences": {"note": "The chains behind the UniProt entries cited, without tags or fusion partners. Residues count along the entry.", "UniProt P19838, residues 1-433": "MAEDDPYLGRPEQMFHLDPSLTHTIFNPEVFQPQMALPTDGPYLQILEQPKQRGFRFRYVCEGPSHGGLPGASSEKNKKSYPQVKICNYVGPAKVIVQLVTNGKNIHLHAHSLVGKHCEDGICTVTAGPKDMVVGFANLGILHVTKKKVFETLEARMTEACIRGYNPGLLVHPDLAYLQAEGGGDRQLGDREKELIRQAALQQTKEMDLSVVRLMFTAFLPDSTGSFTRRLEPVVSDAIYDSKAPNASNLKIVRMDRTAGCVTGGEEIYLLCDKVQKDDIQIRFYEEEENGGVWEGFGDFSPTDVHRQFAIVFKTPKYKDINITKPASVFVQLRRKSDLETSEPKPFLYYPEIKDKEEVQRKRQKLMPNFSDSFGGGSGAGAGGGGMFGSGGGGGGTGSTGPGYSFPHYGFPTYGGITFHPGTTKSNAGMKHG", "UniProt Q04206": "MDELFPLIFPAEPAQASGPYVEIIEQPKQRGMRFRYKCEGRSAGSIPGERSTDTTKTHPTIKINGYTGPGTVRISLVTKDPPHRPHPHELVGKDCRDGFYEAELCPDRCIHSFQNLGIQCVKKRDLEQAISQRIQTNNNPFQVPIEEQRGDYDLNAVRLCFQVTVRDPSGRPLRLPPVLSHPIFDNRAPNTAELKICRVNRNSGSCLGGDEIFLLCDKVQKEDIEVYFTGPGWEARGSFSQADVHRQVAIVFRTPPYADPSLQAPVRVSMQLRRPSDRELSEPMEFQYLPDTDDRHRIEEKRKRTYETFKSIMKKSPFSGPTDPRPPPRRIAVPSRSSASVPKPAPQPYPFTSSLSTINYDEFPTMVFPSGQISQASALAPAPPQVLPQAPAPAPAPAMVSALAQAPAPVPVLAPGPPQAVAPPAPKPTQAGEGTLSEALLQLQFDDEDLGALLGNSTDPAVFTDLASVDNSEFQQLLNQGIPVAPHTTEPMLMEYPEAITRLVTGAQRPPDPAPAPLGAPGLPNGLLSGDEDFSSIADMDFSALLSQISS", "UniProt P14618": "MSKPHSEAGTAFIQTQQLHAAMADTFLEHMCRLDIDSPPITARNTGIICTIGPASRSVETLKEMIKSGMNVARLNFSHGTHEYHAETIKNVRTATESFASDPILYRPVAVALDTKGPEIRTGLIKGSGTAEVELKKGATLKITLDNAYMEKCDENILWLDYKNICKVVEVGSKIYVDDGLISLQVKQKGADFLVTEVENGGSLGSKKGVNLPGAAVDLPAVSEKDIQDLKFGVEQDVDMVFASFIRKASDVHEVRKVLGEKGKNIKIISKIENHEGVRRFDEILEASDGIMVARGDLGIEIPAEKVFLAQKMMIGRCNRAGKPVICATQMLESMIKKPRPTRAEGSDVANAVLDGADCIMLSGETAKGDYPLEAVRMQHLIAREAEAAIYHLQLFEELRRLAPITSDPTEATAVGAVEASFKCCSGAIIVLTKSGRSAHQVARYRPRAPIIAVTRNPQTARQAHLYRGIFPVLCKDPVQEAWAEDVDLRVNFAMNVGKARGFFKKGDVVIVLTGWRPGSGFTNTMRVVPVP"},
  "source": "paper PMC8096781",
  "key": {"[1]": {"biological_target": "T1, Flag-FOXM1B (overexpressed in HeLa cells) (UniProt Q08050)", "T1 sequence": "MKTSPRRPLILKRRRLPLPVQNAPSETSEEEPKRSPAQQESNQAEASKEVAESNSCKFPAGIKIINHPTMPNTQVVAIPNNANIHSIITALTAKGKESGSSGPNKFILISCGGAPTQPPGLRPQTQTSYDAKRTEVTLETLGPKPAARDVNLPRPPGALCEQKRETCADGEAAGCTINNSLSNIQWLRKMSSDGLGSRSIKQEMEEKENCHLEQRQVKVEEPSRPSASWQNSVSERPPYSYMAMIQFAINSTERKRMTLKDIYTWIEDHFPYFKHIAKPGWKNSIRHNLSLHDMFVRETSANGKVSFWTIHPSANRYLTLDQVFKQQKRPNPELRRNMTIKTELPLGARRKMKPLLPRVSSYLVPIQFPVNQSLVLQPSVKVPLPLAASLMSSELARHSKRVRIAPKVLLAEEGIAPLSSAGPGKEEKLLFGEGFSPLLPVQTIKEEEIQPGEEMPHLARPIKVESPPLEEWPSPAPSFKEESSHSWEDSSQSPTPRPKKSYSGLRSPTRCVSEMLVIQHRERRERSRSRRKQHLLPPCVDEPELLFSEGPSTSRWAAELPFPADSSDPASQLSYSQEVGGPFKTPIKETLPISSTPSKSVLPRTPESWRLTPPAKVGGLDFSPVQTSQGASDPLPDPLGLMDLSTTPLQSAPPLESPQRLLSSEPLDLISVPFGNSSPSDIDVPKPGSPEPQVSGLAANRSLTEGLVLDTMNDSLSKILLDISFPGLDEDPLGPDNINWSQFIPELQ", "assay": "co-IP; vector control and Flag-FOXM1A/B/C/D-overexpressing HeLa cells further transfected with HA-p65 or HA-p50 plasmid; anti-Flag or anti-HA antibody; western blot"}, "[2]": {"biological_target": "T2, Flag-FOXM1A (overexpressed in HeLa cells) (UniProt Q08050)", "T2 sequence": "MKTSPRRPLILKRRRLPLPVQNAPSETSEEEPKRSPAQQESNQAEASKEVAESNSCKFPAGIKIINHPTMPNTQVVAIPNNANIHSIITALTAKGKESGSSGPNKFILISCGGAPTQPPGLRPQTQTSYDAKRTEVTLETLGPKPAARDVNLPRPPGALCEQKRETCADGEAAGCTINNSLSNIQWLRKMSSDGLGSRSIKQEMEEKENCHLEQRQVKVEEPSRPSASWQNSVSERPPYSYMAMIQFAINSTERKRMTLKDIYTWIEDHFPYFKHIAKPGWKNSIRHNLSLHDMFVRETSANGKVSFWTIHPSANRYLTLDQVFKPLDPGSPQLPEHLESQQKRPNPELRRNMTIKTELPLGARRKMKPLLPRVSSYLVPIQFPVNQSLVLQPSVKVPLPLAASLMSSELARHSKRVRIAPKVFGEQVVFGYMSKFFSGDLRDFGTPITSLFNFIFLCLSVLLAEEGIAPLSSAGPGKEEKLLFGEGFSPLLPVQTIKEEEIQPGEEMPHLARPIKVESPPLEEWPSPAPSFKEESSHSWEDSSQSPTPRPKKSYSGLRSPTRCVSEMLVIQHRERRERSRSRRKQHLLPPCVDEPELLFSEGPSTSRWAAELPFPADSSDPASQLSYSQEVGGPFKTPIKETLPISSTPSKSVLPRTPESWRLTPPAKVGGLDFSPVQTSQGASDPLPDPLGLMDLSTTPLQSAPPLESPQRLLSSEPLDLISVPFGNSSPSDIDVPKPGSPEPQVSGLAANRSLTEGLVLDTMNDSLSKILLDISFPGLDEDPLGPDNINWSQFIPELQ", "assay": "co-IP; vector control and Flag-FOXM1A/B/C/D-overexpressing HeLa cells further transfected with HA-p65 or HA-p50 plasmid; anti-Flag or anti-HA antibody; western blot"}, "[3]": {"biological_target": "T3, Flag-FOXM1D (overexpressed in HeLa cells) (UniProt Q08050)", "T3 sequence": "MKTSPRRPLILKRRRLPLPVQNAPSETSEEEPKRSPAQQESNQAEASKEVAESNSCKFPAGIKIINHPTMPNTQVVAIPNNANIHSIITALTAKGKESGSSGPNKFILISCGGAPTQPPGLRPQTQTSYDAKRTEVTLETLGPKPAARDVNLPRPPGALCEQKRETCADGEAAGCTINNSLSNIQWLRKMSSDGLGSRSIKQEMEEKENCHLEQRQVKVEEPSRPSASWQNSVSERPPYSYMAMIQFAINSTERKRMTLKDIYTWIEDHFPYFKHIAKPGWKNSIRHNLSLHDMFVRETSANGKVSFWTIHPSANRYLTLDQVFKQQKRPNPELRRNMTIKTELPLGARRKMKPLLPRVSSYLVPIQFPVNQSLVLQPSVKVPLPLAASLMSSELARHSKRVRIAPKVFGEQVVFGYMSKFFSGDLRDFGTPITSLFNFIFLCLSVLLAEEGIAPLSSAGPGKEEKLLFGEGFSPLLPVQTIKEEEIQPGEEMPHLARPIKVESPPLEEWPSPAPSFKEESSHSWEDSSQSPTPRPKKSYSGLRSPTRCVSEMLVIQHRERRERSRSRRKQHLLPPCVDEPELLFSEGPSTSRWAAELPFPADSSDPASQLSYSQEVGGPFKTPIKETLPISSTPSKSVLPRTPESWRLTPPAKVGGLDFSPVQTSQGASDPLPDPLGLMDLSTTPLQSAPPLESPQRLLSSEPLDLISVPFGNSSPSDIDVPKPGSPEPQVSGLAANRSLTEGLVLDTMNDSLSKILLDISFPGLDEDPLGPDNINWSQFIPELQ", "assay": "co-IP; vector control and Flag-FOXM1A/B/C/D-overexpressing HeLa cells further transfected with HA-p65 or HA-p50 plasmid; anti-Flag or anti-HA antibody; western blot"}, "[4]": {"biological_target": "T4, Flag-FOXM1D (transfected 293T cells) (UniProt Q08050)", "T4 sequence": "T3 sequence", "assay": "co-IP; HEK293T cells cotransfected with HA-PKM2 (or its truncated mutants) and Flag-FOXM1 isoforms (or FOXM1D truncated mutants); lysed two days after transfection; anti-Flag or anti-HA; washed four times with lysis buffer; western blot"}, "[5]": {"biological_target": "T5, Flag-FOXM1C (transfected 293T cells) (UniProt Q08050)", "T5 sequence": "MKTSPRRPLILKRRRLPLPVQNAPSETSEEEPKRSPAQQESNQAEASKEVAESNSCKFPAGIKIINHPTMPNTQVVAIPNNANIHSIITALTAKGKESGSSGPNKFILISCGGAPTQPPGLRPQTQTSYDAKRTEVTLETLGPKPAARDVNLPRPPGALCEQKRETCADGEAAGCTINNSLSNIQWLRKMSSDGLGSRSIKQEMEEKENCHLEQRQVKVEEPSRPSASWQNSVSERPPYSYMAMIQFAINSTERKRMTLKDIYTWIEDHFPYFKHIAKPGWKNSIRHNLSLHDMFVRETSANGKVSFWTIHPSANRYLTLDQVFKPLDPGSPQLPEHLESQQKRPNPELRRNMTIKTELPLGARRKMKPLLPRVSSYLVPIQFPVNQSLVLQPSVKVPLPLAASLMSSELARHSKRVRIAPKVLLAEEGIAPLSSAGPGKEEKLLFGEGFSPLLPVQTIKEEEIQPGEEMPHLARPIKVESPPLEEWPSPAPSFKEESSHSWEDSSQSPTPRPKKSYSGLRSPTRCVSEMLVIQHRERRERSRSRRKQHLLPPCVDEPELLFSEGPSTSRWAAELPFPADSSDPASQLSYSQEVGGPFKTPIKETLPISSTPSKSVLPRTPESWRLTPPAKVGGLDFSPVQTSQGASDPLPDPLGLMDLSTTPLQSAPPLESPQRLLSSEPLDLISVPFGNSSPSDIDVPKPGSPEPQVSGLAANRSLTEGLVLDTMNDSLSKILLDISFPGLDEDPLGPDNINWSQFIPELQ", "assay": "co-IP; HEK293T cells cotransfected with HA-PKM2 (or its truncated mutants) and Flag-FOXM1 isoforms (or FOXM1D truncated mutants); lysed two days after transfection; anti-Flag or anti-HA; washed four times with lysis buffer; western blot"}, "[6]": {"biological_target": "T6, Flag-FOXM1B (transfected 293T cells) (UniProt Q08050)", "T6 sequence": "T1 sequence", "assay": "co-IP; HEK293T cells cotransfected with HA-PKM2 (or its truncated mutants) and Flag-FOXM1 isoforms (or FOXM1D truncated mutants); lysed two days after transfection; anti-Flag or anti-HA; washed four times with lysis buffer; western blot"}, "GST-FOXM1D": {"biological_target": "T7, GST-FOXM1D (UniProt Q08050)", "T7 sequence": "T3 sequence", "assay": "pull-down; GST-FOXM1D or control GST bound to MagneGST glutathione particles, incubated with lysates of transfected HEK293T cells for 1 h at 4 °C; western blot with anti-HA and anti-PKM2; only the target purified"}, "[7]": {"biological_target": "T8, Flag-FOXM1C (overexpressed in HeLa cells) (UniProt Q08050)", "T8 sequence": "T5 sequence", "assay": "co-IP; vector control and Flag-FOXM1A/B/C/D-overexpressing HeLa cells further transfected with HA-p65 or HA-p50 plasmid; anti-Flag or anti-HA antibody; western blot"}, "HA-p50": {"biological_target": "HA-p50 (UniProt P19838)", "assay": "co-IP; vector control and Flag-FOXM1A/B/C/D-overexpressing HeLa cells further transfected with HA-p65 or HA-p50 plasmid; anti-Flag or anti-HA antibody; western blot"}, "HA-p65": {"biological_target": "HA-p65 (UniProt Q04206)", "assay": "co-IP; vector control and Flag-FOXM1A/B/C/D-overexpressing HeLa cells further transfected with HA-p65 or HA-p50 plasmid; anti-Flag or anti-HA antibody; western blot"}},
  "note": "No constants are given. Whether binding was seen depends on the method and setting. Binding seen in cells or lysates may run through a third protein. Some entries that bind do so weakly or less than the wild type. For some assays here: Where a sequence is shown, tags or fusion partners need not be part of it.",
  "data": [
    {"substance": "HA-p65 (from UniProt Q04206 1-551)", "values": [
      {"measurement": "binding", "setting": "[1]", "value": "binds"},
      {"measurement": "binding", "setting": "[2]", "value": "binds"}
    ]},
    {"substance": "HA-p50 (from UniProt P19838 1-433)", "values": [
      {"measurement": "binding", "setting": "[1]", "value": "no binding"},
      {"measurement": "binding", "setting": "[3]", "value": "binds"},
      {"measurement": "binding", "setting": "[2]", "value": "binds weakly"}
    ]},
    {"substance": "HA-PKM2 (from UniProt P14618 1-531) (enzyme)", "values": [
      {"measurement": "binding", "setting": "[4]", "value": "binds"},
      {"measurement": "binding", "setting": "[5]", "value": "binds"},
      {"measurement": "binding", "setting": "[6]", "value": "binds"},
      {"measurement": "binding", "setting": "GST-FOXM1D", "value": "binds"}
    ]},
    {"substance": "endogenous PKM2 (HeLa cells) (from UniProt P14618 1-531) (enzyme)", "values": [
      {"measurement": "binding", "setting": "[1]", "value": "binds"},
      {"measurement": "binding", "setting": "[7]", "value": "binds"},
      {"measurement": "binding", "setting": "[3]", "value": "binds"},
      {"measurement": "binding", "setting": "HA-p50", "value": "binds"},
      {"measurement": "binding", "setting": "HA-p65", "value": "binds"}
    ]}
  ]
}
